# Experimental data published in article PMC4336329 (PLoS ONE, 2015).
# Among all 310,000 compounds or so, about 14,000 (4.5%) showed an effect of 50% or more. The effect is printed as a negative number. This is one part of the list.
# Molecular target: human ether-à-go-go-related gene (hERG) potassium channel (human, UniProt Q12809)
# Experiment: primary screen, population patch clamp on CHO cells stably expressing hERG
# 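Also: peak tail current of the secondary pulse compared with the same well before compound.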
# Chain of human ether-à-go-go-related gene (hERG) potassium channel (Q12809 whole entry, looked up): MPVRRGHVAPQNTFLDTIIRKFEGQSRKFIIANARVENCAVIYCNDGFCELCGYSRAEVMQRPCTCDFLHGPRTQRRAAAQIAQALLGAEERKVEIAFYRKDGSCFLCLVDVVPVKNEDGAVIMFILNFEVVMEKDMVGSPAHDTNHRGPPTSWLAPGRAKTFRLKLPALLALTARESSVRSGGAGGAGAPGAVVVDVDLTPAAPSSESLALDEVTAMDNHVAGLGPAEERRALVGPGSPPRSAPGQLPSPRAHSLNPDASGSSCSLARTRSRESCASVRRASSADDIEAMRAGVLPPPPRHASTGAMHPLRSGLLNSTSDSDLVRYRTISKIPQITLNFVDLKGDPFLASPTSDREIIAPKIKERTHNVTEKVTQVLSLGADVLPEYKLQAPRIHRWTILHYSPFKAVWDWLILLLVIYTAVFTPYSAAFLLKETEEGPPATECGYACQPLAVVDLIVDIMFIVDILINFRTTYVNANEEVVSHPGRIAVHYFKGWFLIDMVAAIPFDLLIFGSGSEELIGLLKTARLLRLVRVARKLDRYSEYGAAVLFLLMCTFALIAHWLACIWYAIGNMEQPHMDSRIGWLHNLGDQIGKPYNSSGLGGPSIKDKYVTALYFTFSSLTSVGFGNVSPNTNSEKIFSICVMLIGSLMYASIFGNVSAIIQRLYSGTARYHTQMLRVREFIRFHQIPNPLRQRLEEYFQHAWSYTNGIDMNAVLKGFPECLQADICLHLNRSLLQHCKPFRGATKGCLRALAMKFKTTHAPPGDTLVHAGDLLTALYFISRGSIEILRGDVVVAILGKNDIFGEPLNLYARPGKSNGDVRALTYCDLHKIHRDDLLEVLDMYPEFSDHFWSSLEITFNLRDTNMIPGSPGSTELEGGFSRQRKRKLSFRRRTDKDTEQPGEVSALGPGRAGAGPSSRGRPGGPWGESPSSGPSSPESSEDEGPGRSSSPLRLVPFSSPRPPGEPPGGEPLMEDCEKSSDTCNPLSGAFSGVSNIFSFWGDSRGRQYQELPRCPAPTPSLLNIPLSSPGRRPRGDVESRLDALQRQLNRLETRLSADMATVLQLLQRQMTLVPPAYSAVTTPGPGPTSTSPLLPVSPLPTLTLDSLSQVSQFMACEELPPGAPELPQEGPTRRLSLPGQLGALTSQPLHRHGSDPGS
row,Structure (SMILES),"hERG current change (%, negative = inhibition) at 10uM [%]"
1,N=c1c(C(=O)NC2CCCC2)cc2c(=O)n3ccccc3nc2n1Cc1ccccc1,-78.6
2,CC(=O)c1cccc(N(CC(=O)N2CCCC2)S(C)(=O)=O)c1,2.47
3,COc1ccc(C2c3c(n[nH]c3C)CC(C)(O)C2C(C)=O)cc1OC (stereo not drawn),-7.33
4,CC(C)(C)OC(=O)NCCCCCNC(=O)c1nc[nH]c1C(=O)NCc1ccccc1,-35.9
5,COc1cccc(NC(=O)[C@H](Cc2ccccc2)NC(=O)[C@@H]2Cc3ccccc3CN2)c1,-2.99
6,COc1ccc(N(CCCN2C(=O)c3cccc4cccc(c34)C2=O)C(=O)c2cccs2)cc1,10.9
7,COc1ccccc1NC(=S)N(CCN1CCCCCC1)Cc1cccs1,-55.3
8,O=C(Nc1ccnn1C1CCN(Cc2ccn[nH]2)CC1)c1ccccc1,-18.2
9,S=C(NCc1ccccn1)Nc1ccc(Cl)cc1,7.71
10,CCOc1ccc(C(O)c2nccn2Cc2ccccc2)cc1 (stereo not drawn),7.58
11,O=C(Nc1cccc(-c2nnc(-c3ccccc3)o2)c1)C1CCCCC1,2.83
12,Cc1cc(N2C(=O)C(O)=C(C(=O)c3ccco3)C2c2cccc(Oc3ccccc3)c2)no1 (stereo not drawn),22.5
13,Cc1cc(O)c(-c2cc(C(=O)NCCc3ccc(S(N)(=O)=O)cc3)[nH]n2)cc1C,15.3
14,CN(c1ccc(F)cc1)S(=O)(=O)c1ccc(Cl)c(C(=O)Nc2ccncc2)c1,-6.91
15,O=C(Nc1ccc(Cl)cc1)c1cnc(-c2ccccc2)nc1-c1ccccc1,-1.24
16,CC(=C\c1ccco1)/C=C(\C#N)C(=O)NCCc1c[nH]c2ccccc12,-4.55
17,CC(=O)Nc1ccc(S(=O)(=O)N(C)CC(=O)Nc2ccccc2N2CCCC2)cc1,1.47
18,Cc1csc(NC(=O)COc2ccc3c(C)cc(=O)oc3c2)n1,-1.87
19,COC(=O)c1sc2ccccc2c1NC(=O)c1coc2ccccc2c1=O,9.05
20,O=C(O)C1CC(=O)N(c2ccc(OCc3c(F)cccc3Cl)cc2)C1 (stereo not drawn),13.1
21,CC(C)N(Cc1nc(-c2ccccc2)no1)S(=O)(=O)c1ccccc1,-7.82
22,CN(Cc1ccco1)S(=O)(=O)c1ccc(CN2C(=O)c3cccnc3C2=O)s1,-63.4
23,Cn1c(SCc2n[nH]c(=S)o2)nnc1-c1ccccc1,3.69
24,Cc1cc2c(cc1C)[n+](C)cn2CC(O)COCC1CC=CCC1.[I-] (stereo not drawn),1.25
25,O=C1c2ccccc2C(=O)N1CC1=NCCc2ccccc21,20
26,CC(C)C(=O)NC(NC1CCS(=O)(=O)C1)C(Cl)(Cl)Cl (stereo not drawn),14.8
27,CCc1ccc(-c2nc(-c3ccncc3)no2)cc1,-1.8

row,Structure (SMILES),"hERG current change (%, negative = inhibition) at 10uM [%]"
1,Cc1cc(C)c(NS(=O)(=O)c2ccc(NC(=O)/C=C/C(=O)O)cc2)c(C)c1,2.4
2,O=C(CNc1ccc(F)cc1)N/N=C1\CCc2ccccc21,0.266
3,O=C(NCc1ccccn1)C1CN(S(=O)(=O)c2ccccc2)CCN1S(=O)(=O)c1ccccc1 (stereo not drawn),6.49
4,O=C(NNC(=S)NCc1ccccc1)c1cccnc1,10.6
5,COc1ccccc1C(=O)Nc1nnc(SCC(=O)Nc2ccc3c(c2)oc2ccccc23)s1,9.85
6,COc1ccc(/C=N\NC(=O)c2nn(C)cc2Cl)cc1CN1CCOCC1,-10.6
7,O=C(CCS(=O)(=O)c1cccc2nsnc12)N1CCN(c2ccccc2F)CC1,-30.3
8,CCC(C(=O)NCc1ccco1)N(C(=O)CNS(=O)(=O)c1ccccc1)C1CCCCC1 (stereo not drawn),-22.1
9,C#CCOC(=O)c1ccccc1C(=O)n1nnc2ccccc21,-0.66
10,CCn1c(CC(=O)Nc2cccc(Cl)c2Cl)nnc1SCCOc1ccc(OC)cc1,5.96
11,COc1cc(C(=O)NCCC(=O)NC(C)CCc2ccccc2)cc(OC)c1OC (stereo not drawn),-9.11
12,CCOc1ccc(NC(=O)Nc2ccon2)cc1,16.7
13,O=C(Nc1ccc(F)cc1)C1CCN(c2ncnc3c2nc2n3CCCCC2)CC1,-7.35
14,COc1ccc(NC(=O)CN2C(=O)C(c3ccccc3)=NC23CCCCCC3)cc1,-0.13
15,N#Cc1c(-c2ccccc2)nc(SCC(=O)Nc2nnc(C(F)(F)F)s2)[nH]c1=O,5.59
16,CCOc1cc2[nH]c(=S)n(CCN3CCC(C)CC3)c(=O)c2cc1OCC,-51.2
17,CN(Cc1ccccc1)Cc1nc2c([nH]1)c(=O)[nH]c(=O)n2C,-4.37
18,CC(C)C1=CC2=CCC3C(C)(C(=O)[O-])CCCC3(C)C2CC1.CC(C12CC3CC(CC(C3)C1)C2)[N+](C)(C)C (stereo not drawn),-1.16
19,Cc1ccc2cc(C(c3nnnn3C3CCCC3)N3CCN(c4ccccc4)CC3)c(=O)[nH]c2c1 (stereo not drawn),-26.1
20,O=C(C/C=N\OCc1ccc([N+](=O)[O-])cc1)Nc1ccc(Br)cc1,15.5
21,COc1cc(-c2nc3cnccn3c2Nc2ccc(C)cc2)ccc1O,-13.8
22,Cn1c(SCC(=O)Nc2ccccc2)nc2ccccc2c1=O,5.89
23,CCCCOc1ccc(CSC(=N)N)cc1Cl.Cl,-21.9
24,Cc1cc(OCC(=O)N(C)Cc2ccccc2)ccc1Cl,-10.4
25,O=c1[nH]c(COc2ccc(Br)cc2Cl)nc2ccccc12,9.57
26,COC(=O)Nc1ccc(N2CCOCC2)c(S(=O)(=O)N2CCOCC2)c1,-5.26
27,COC(=O)c1c(-c2ccc(OC)cc2)sc2cc3c(cc12)OCO3,8.58
